# Source: the supplement of paper PMC3334620
# Over roughly 33,000 sequences, “E-score (-0.5 to 0.5)” has its median near -0.032; the highest 2% begin near 0.36. Some of the results follow.
# Target: T1, Sko1 (UniProt Q02100)
# T1 sequence: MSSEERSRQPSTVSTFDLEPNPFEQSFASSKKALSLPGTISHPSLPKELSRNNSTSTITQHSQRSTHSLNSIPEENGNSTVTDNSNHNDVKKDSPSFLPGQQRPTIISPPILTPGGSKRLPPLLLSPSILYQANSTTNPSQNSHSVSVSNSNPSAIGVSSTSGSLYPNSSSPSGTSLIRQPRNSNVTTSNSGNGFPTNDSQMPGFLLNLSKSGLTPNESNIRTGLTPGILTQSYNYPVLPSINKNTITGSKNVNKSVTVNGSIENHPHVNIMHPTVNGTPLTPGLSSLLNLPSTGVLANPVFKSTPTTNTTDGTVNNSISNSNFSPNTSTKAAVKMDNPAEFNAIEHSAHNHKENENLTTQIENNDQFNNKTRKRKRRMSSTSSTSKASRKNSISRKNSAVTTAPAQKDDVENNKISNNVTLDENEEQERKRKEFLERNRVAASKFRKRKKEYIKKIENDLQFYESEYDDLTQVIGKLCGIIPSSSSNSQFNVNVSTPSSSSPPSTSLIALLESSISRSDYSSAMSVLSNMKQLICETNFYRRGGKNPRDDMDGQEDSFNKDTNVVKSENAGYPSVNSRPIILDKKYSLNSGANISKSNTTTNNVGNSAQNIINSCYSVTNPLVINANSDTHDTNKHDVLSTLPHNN
# Experiment: PBM E-score (8-mer binding enrichment) (E-score (-0.5 to 0.5)); higher = stronger / more preferred TF binding; most listed sequences are background and not binding sites
# Conditions: protein concentration: 200 nM; construct: GST-full length
# Procedure, shortened: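 PURExpress in vitro transcription/translation supplied GST-tagged yeast transcription factors, either full-length or DNA-binding domain. Applied at about 100-200 nM to universal all-10-mer Agilent arrays double-stranded by primer extension, the bound protein was detected with fluorescent anti-GST. E-scores, modified Wilcoxon-Mann-Whitney statistics, were given by the Universal PBM Analysis Suite to ungapped eight-base words pooled with their reverse complements after masliner normalisation.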
row,Sequence,PBM E-score
1,CGTCTCCA,0.201
2,CGCAAATA,0.201
3,CCCTCACC,-0.152
4,GATTTCAC,0.17
5,GCCGCCAA,-0.276
6,GGGCGTCA,0.223
7,ACGAAATC,0.277
8,AGCGATCG,-0.0389
9,CAATCGCC,-0.105
10,ATCAGCAC,0.0773
11,AATTCAAT,0.185
12,GAACATGC,-0.0874
13,AGTCGAAC,-0.0653
14,ACCCAATA,0.00792
15,CAACACAA,0.171
16,ATAACATG,0.117
17,AGCGCTGC,-0.167
18,TGGGGTAA,-0.142
19,AATGGGCT,-0.0428
20,GCGCGGCC,-0.0613
21,CATGCGCA,0.145
22,ACGCCCTG,-0.0628
23,CCGACGCA,0.0873
24,AACCGGAA,-0.192
25,CCGCGTCG,-0.127

row,Sequence,PBM E-score
1,AAGAGGGG,-0.279
2,GCTTTAAA,-0.0875
3,GATAATAC,0.169
4,ATACATAT,0.29
5,AATGTAAG,0.153
6,ACGCAGGA,0.0876
7,GCGCCCAC,-0.058
8,AGAGGGCA,-0.237
9,ACGAAACT,0.215
10,CGCAGCGC,-0.0261
11,ATTCGTCC,0.119
12,ATATACGA,0.276
13,ATAGCGAC,0.0478
14,ACATGTCT,0.0949
15,AAAGTGAG,0.126
16,AAGCAACG,0.107
17,ATGACTGA,0.0911
18,GAACCGCA,0.0871
19,AACCTAGA,-0.0495
20,AATGCTAC,0.105
21,CTAGTGGA,-0.299
22,GTCTCTTA,-0.0168
23,CGCATTCA,0.232
24,CCGTTCTA,-0.0829
25,CGCATCAG,-0.0566

row,Sequence,PBM E-score
1,CCGCAACA,0.165
2,ACGGGTCG,-0.0427
3,ATATCACC,0.214
4,CGCGCCAA,0.0639
5,TGAAGGAA,-0.0645
6,ATTTAATG,0.292
7,ACGAAGCT,0.0464
8,AGAGCCGC,-0.172
9,ACATTGGA,0.0753
10,ATGTAGCC,-0.171
11,CCGGTTAC,-0.0312
12,ATCAACCA,0.0221
13,CCGAGCCG,-0.288
14,ATGATCAA,0.278
15,GGTCCTAC,-0.129
16,GCTGATCA,-0.0916
17,TATTGAAA,0.18
18,ATTCTTGA,0.126
19,ATTGCCCG,-0.208
20,AGCGCTGA,0.00751
21,CATGGCAG,-0.07
22,GATTCGTA,0.251
23,AACAACCC,-0.0561
24,CTGTCCTA,-0.169
25,AATTCTGG,0.019

row,Sequence,PBM E-score
1,CATCGAAG,0.00565
2,ATTCGTGC,0.198
3,CGATTGCA,0.0846
4,ACTCTAAG,-0.129
5,CCCCTTAG,-0.341
6,ACTAGTCG,-0.197
7,TGATAGAA,0.0834
8,AATGTTGA,0.13
9,GATTCTTA,0.207
10,AAAGGCTT,-0.133
11,AAGTGCTG,0.013
12,CGCTATCC,-0.0434
13,AGGTCTAC,-0.148
14,ACTCATTC,0.169
15,GTATATTA,0.355
16,TCTCCAAA,-0.115
17,GCACTCGA,-0.274
18,ACTTATTA,0.157
19,ACCAGTTC,-0.22
20,CATAAGCG,-0.0292
21,CGAATAGA,-0.0425
22,CCTTGGCG,-0.329
23,GAGCTTAA,-0.101
24,CTTCCACC,-0.0638
25,CCGGTACG,0.0472

row,Sequence,PBM E-score
1,AGGAGTAA,-0.00289
2,AAGTTGGC,-0.114
3,ATCAGGGA,-0.19
4,GCTGTTCC,-0.212
5,ATGCTATG,0.233
6,CCGGAGAA,-0.226
7,ATCTAGTA,0.225
8,GTCCGTAA,0.00251
9,GCCATCCA,-0.213
10,CGTGTGAC,0.336
11,TGCCTTAA,-0.125
12,CTACTACC,-0.15
13,ACACGTAA,0.472
14,GGTTAAAA,0.0589
15,AACCCGCC,-0.0447
16,GGGAGACC,-0.382
17,GTGATGTA,0.397
18,GTACAGAA,0.055
19,CTCACGCC,0.00864
20,CACACTGA,-0.0502
21,GTCGCCCA,-0.101
22,ATATAGGG,-0.0541
23,CTTGTCAC,-0.0926
24,CGTGGGTA,0.0415
25,AGATGTGG,-0.0787

row,Sequence,PBM E-score
1,AGCATGAC,0.17
2,CTGAGTCC,-0.0736
3,GCAAGTAC,0.106
4,AATCGATC,0.0563
5,GAAAGGGC,-0.157
6,AAGACAAG,0.0626
7,TTCTCCAA,-0.036
8,GCAAGGCC,-0.282
9,CGCTAACG,0.268
10,ATATCCAA,0.165
11,CCTAAACA,-0.0392
12,AATTGTTC,0.227
13,TAGTCTAA,0.0345
14,CCGAGCGC,-0.192
15,GAGGTAGC,-0.222
16,CGGTCACA,-0.0474
17,AATAGTGT,0.115
18,ACAAAACG,0.347
19,ACCGGTCC,-0.398
20,GACTAACA,0.0573
21,CCTCTGTA,-0.16
22,AGCAGACC,-0.16
23,AAGTCGTG,0.00032
24,GCCAACAA,-0.143
25,GGAGGGGA,-0.104

row,Sequence,PBM E-score
1,CCAGCAAG,-0.194
2,TGCGGTAA,0.0179
3,CCTATGCC,-0.3
4,CACGGCCA,-0.354
5,CCGACGAG,-0.201
6,CGGGGCAG,-0.114
7,CTGGAGGA,-0.246
8,CTTGAATC,-0.0656
9,TCATAGCA,0.231
10,CACCCAAG,-0.3
11,GAGAACTA,0.0285
12,CAAGATCC,0.0137
13,TACCCCCA,-0.192
14,AGCCTTAC,-0.204
15,CGTGCTGA,0.11
16,GCCGGGAA,-0.3
17,AAACGACG,0.299
18,AACCTAGG,-0.0381
19,GATCCTGA,0.113
20,CCGAGGGC,-0.25
21,CAGCATCC,-0.124
22,ACTCCTGC,-0.0979
